Results as given in the supplement of paper PMC4967469.
The IC50 comes from the fitted curve, where viability falls to half of the control; a limit (>, <) means that the fit lies beyond the doses tested. AUC, from the same fit, is the share of area under the viability curve across the 256-fold dose range; the more sensitive the line, the further below 1.

Compound: Cn1c(=O)n(-c2ccc(C(C)(C)C#N)cc2)c2c3cc(-c4cnc5ccccc5c4)ccc3ncc21 [NVP-BEZ235]
Experiment: Viability of human cancer cell lines after 72 h of drug (GDSC screen)
Procedure: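 Human cancer cell lines in 384-well plates, medium with 10% serum, drug for 72 h over a 256-fold dose range (nine 2-fold or five 4-fold steps up to the top dose). Adherent lines were fixed and stained with the nucleic acid dye Syto60, suspension lines read with resazurin; signal relative to control wells, capped at 0 and 100%. One two-parameter sigmoid per drug and line, fitted in a mixed model over all curves with the slope shared within a line.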

| Cell Line | AUC | IC50 [nM] |
| --- | --- | --- |
| NB14 (neuroblastoma, adherent, top dose 0.25 µM) | 0.722 | 63.7 |
| NB17 (neuroblastoma, adherent, top dose 0.25 µM) | 0.934 | > 250 |
| NB69 (neuroblastoma, adherent, top dose 0.25 µM) | 0.578 | 24.9 |
| NB(TU)1-10 (neuroblastoma, adherent, top dose 0.25 µM) | 0.986 | > 250 |
| NB-4 (acute myeloid leukaemia, suspension, top dose 0.25 µM) | 0.712 | 54.3 |
| NCC010 (kidney, adherent, top dose 0.25 µM) | 0.717 | 67.8 |
| NCC021 (kidney, adherent, top dose 0.25 µM) | 0.753 | 96.1 |
| NCI-H23 (lung adenocarcinoma, adherent, top dose 0.25 µM) | 0.828 | 152 |
| NCI-H28 (mesothelioma, adherent, top dose 0.25 µM) | 0.634 | 41.4 |
| NCI-H64 (small cell lung carcinoma, suspension, top dose 0.25 µM) | 0.918 | 203 |
| NCI-H69 (small cell lung carcinoma, suspension, top dose 0.25 µM) | 0.833 | 188 |
| NCI-H82 (small cell lung carcinoma, suspension, top dose 0.25 µM) | 0.73 | 67.5 |
| NCI-H146 (small cell lung carcinoma, suspension, top dose 0.25 µM) | 0.843 | 127 |
| NCI-H187 (small cell lung carcinoma, suspension, top dose 0.25 µM) | 0.832 | 179 |
| NCI-H209 (small cell lung carcinoma, suspension, top dose 0.25 µM) | 0.685 | 53.7 |
| NCI-H211 (small cell lung carcinoma, adherent, top dose 0.25 µM) | 0.854 | 188 |
| NCI-H226 (lung squamous cell carcinoma, adherent, top dose 0.25 µM) | 0.906 | > 250 |
| NCI-H322M (lung adenocarcinoma, suspension, top dose 0.25 µM) | 0.89 | > 250 |
| NCI-H345 (small cell lung carcinoma, suspension, top dose 0.25 µM) | 0.945 | > 250 |
| NCI-H358 (lung adenocarcinoma, adherent, top dose 2 µM) | 0.791 | 1010 |
| NCI-H446 (small cell lung carcinoma, semi-adherent, top dose 0.25 µM) | 0.731 | 74.9 |
| NCI-H460 (large cell lung carcinoma, adherent, top dose 0.25 µM) | 0.744 | 72 |
| NCI-H508 (large intestine, semi-adherent, top dose 0.25 µM) | 0.6 | 35.3 |
| NCI-H510A (small cell lung carcinoma, semi-adherent, top dose 0.25 µM) | 0.806 | 115 |

| Cell Line | AUC | IC50 [nM] |
| --- | --- | --- |
| NCI-H520 (lung squamous cell carcinoma, adherent, top dose 0.25 µM) | 0.754 | 86.6 |
| NCI-H522 (lung adenocarcinoma, adherent, top dose 0.25 µM) | 0.801 | 149 |
| NCI-H524 (small cell lung carcinoma, suspension, top dose 0.25 µM) | 0.845 | 153 |
| NCI-H526 (small cell lung carcinoma, suspension, top dose 0.25 µM) | 0.778 | 96.8 |
| NCI-H596 (lung adenocarcinoma, adherent, top dose 0.25 µM) | 0.793 | 153 |
| NCI-H630 (large intestine, adherent, top dose 0.25 µM) | 0.932 | > 250 |
| NCI-H647 (non-small cell lung carcinoma, adherent, top dose 0.25 µM) | 0.642 | 39.5 |
| NCI-H650 (lung adenocarcinoma, adherent, top dose 0.25 µM) | 0.723 | 72.2 |
| NCI-H661 (large cell lung carcinoma, adherent, top dose 0.25 µM) | 0.733 | 84.3 |
| NCI-H720 (lung carcinoid, suspension, top dose 0.25 µM) | 0.765 | 84 |
| NCI-H727 (lung carcinoid, adherent, top dose 0.25 µM) | 0.784 | 194 |
| NCI-H747 (large intestine, adherent, top dose 0.25 µM) | 0.768 | 114 |
| NCI-H810 (large cell lung carcinoma, adherent, top dose 0.25 µM) | 0.865 | 205 |
| NCI-H835 (lung carcinoid, suspension, top dose 0.25 µM) | 0.886 | > 250 |
| NCI-H838 (lung adenocarcinoma, adherent, top dose 0.25 µM) | 0.584 | 26.9 |
| NCI-H841 (small cell lung carcinoma, adherent, top dose 0.25 µM) | 0.555 | 22.1 |
| NCI-H847 (small cell lung carcinoma, adherent, top dose 0.25 µM) | 0.923 | > 250 |
| NCI-H929 (myeloma, suspension, top dose 0.25 µM) | 0.436 | 10.7 |
| NCI-H1048 (small cell lung carcinoma, adherent, top dose 0.25 µM) | 0.761 | 80.3 |
| NCI-H1092 (small cell lung carcinoma, suspension, top dose 0.25 µM) | 0.947 | > 250 |
| NCI-H1105 (small cell lung carcinoma, suspension, top dose 0.25 µM) | 0.848 | 138 |
| NCI-H1155 (large cell lung carcinoma, suspension, top dose 0.25 µM) | 0.659 | 39.4 |
| NCI-H1304 (small cell lung carcinoma, suspension, top dose 0.25 µM) | 0.971 | > 250 |
| NCI-H1341 (small cell lung carcinoma, suspension, top dose 0.25 µM) | 0.67 | 42.8 |

| Cell Line | AUC | IC50 [nM] |
| --- | --- | --- |
| NCI-H1355 (lung adenocarcinoma, adherent, top dose 0.25 µM) | 0.642 |  |
| NCI-H1395 (lung adenocarcinoma, adherent, top dose 0.25 µM) | 0.83 | 234 |
| NCI-H1417 (small cell lung carcinoma, suspension, top dose 0.25 µM) | 0.789 | 134 |
| NCI-H1435 (lung adenocarcinoma, semi-adherent, top dose 0.25 µM) | 0.938 | > 250 |
| NCI-H1436 (small cell lung carcinoma, suspension, top dose 0.25 µM) | 0.838 | 203 |
| NCI-H1437 (lung adenocarcinoma, adherent, top dose 0.25 µM) | 0.693 | 55.6 |
| NCI-H1563 (lung adenocarcinoma, adherent, top dose 0.25 µM) | 0.734 | 83.7 |
| NCI-H1568 (lung adenocarcinoma, adherent, top dose 0.25 µM) | 0.767 | 116 |
| NCI-H1623 (lung adenocarcinoma, adherent, top dose 0.25 µM) | 0.662 | 49.1 |
| NCI-H1648 (lung adenocarcinoma, adherent, top dose 2 µM) | 0.48 | 110 |
| NCI-H1651 (lung adenocarcinoma, adherent, top dose 0.25 µM) | 0.846 | 205 |
| NCI-H1688 (small cell lung carcinoma, adherent, top dose 0.25 µM) | 0.854 | 230 |
| NCI-H1693 (lung adenocarcinoma, adherent, top dose 0.25 µM) | 0.717 | 94.9 |
| NCI-H1694 (small cell lung carcinoma, suspension, top dose 0.25 µM) | 0.826 | 150 |
| NCI-H1703 (lung adenocarcinoma, adherent, top dose 0.25 µM) | 0.754 | 101 |
| NCI-H1755 (lung adenocarcinoma, adherent, top dose 0.25 µM) | 0.791 | 133 |
| NCI-H1770 (non-small cell lung carcinoma, suspension, top dose 0.25 µM) | 0.863 | 173 |
| NCI-H1781 (lung adenocarcinoma, adherent, top dose 0.25 µM) | 0.985 | > 250 |
| NCI-H1792 (lung adenocarcinoma, adherent, top dose 0.25 µM) | 0.728 | 64.4 |
| NCI-H1836 (small cell lung carcinoma, suspension, top dose 0.25 µM) | 0.986 | > 250 |
| NCI-H1838 (lung adenocarcinoma, adherent, top dose 2 µM) | 0.708 | 556 |
| NCI-H1869 (lung squamous cell carcinoma, adherent, top dose 0.25 µM) | 0.814 | 159 |
| NCI-H1876 (small cell lung carcinoma, adherent, top dose 0.25 µM) | 0.556 | 22.2 |
